± gives the standard deviation of the averaged measurements. Restriction of a single-cycle SIVsab GFP reporter by TRIM5α v1-loop variants in CRFK cells. Human variants: read share among cells still uninfected after two challenges over input, higher = gained restriction. Rhesus variants: share among infected cells over input, higher = lost restriction. Reporter dose not given per row. No active / inactive call per row; the paper calls a change when both replicates lie above its controls (mean + 2 SD of stop or wild-type variants, or the top frameshift score). Residues outside the varied loop are taken from Swiss-Prot. The paper reads the human single-substitution scores as noise; they and the rhesus combinations repeat poorly (rank correlation 0.3 to 0.4), indel scores repeat only for the top variants, rhesus substitutions well (0.9).

This data set has as its system SIVsab (simian immunodeficiency virus of sabaeus monkeys), single-cycle GFP reporter, in CRFK cells. Briefly: enrichment among infected cells over input (fold); higher = weaker restriction. The note with it: library: human / rhesus combinations. How it is done:
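Pools of CRFK cells expressing variants of the TRIM5α v1 loop were challenged with the single-cycle reporter, sorted by GFP and sequenced; mean of two replicates.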
As to “MASGILLNVKEEVTCPICLELLTEPLSLHCGHSFCQACITANHKKSMLYKEGERSCPVCRISYQPENIQPNRHVANIVEKLREVKLSPEEGQKVDHCARHGEKLLLFCQEDSKVICWLCERSQEHRGHHTFLMEEVAQEYHVKLQTALEMLRQKQQEAEKLEADIREEKASWKIQIDYDKTNVSADFEQLREILDWEESNELQNLEKEEEDILKSLTKSETEMVQQTQYMRELISELEHRLQGSMMDLLQGVDGIIKRIENMTLKKPKTFHKNQRRVFRAPDLKGMLDMFRELTDARRYWVDVTLAPNNISHAVIAEDKRQVSSRNPQIMYGAPGTRYTFPTFTNFNYCTGVLGSQSITSGKHYWEVDVSKKSAWILGVCAGFQSDAMYNIEQNENYQPKYGYWVIGLQEGVKYSVFQDGSSHTPFAPFIVPLSVIICPDRVGVFVDYEACTVSFFNITNHGFLIYKFSQCSFSKPVFPYLNPRKCTVPMTLCSPSS [rhesus TRIM5α, 332-344 = GAPGTRYTFPTFT]”, the enrichment is 1.03 ± 0.37.

For the sequence “MASGILLNVKEEVTCPICLELLTEPLSLHCGHSFCQACITANHKKSMLYKEGERSCPVCRISYQPENIQPNRHVANIVEKLREVKLSPEEGQKVDHCARHGEKLLLFCQEDSKVICWLCERSQEHRGHHTFLMEEVAQEYHVKLQTALEMLRQKQQEAEKLEADIREEKASWKIQIDYDKTNVSADFEQLREILDWEESNELQNLEKEEEDILKSLTKSETEMVQQTQYMRELISELEHRLQGSMMDLLQGVDGIIKRIENMTLKKPKTFHKNQRRVFRAPDLKGMLDMFRELTDARRYWVDVTLAPNNISHAVIAEDKRQVSSRNPQIMYGAPGTRYTFPTFVNFNYCTGVLGSQSITSGKHYWEVDVSKKSAWILGVCAGFQSDAMYNIEQNENYQPKYGYWVIGLQEGVKYSVFQDGSSHTPFAPFIVPLSVIICPDRVGVFVDYEACTVSFFNITNHGFLIYKFSQCSFSKPVFPYLNPRKCTVPMTLCSPSS [rhesus TRIM5α, 332-344 = GAPGTRYTFPTFV]”, the enrichment came out at 1.32 ± 0.29. For the sequence “MASGILLNVKEEVTCPICLELLTEPLSLHCGHSFCQACITANHKKSMLYKEGERSCPVCRISYQPENIQPNRHVANIVEKLREVKLSPEEGQKVDHCARHGEKLLLFCQEDSKVICWLCERSQEHRGHHTFLMEEVAQEYHVKLQTALEMLRQKQQEAEKLEADIREEKASWKIQIDYDKTNVSADFEQLREILDWEESNELQNLEKEEEDILKSLTKSETEMVQQTQYMRELISELEHRLQGSMMDLLQGVDGIIKRIENMTLKKPKTFHKNQRRVFRAPDLKGMLDMFRELTDARRYWVDVTLAPNNISHAVIAEDKRQVSSRNPQIMYGAPGTRYTFPTLTNFNYCTGVLGSQSITSGKHYWEVDVSKKSAWILGVCAGFQSDAMYNIEQNENYQPKYGYWVIGLQEGVKYSVFQDGSSHTPFAPFIVPLSVIICPDRVGVFVDYEACTVSFFNITNHGFLIYKFSQCSFSKPVFPYLNPRKCTVPMTLCSPSS [rhesus TRIM5α, 332-344 = GAPGTRYTFPTLT]”, the enrichment was 0.607 ± 0.23. As to “MASGILLNVKEEVTCPICLELLTEPLSLHCGHSFCQACITANHKKSMLYKEGERSCPVCRISYQPENIQPNRHVANIVEKLREVKLSPEEGQKVDHCARHGEKLLLFCQEDSKVICWLCERSQEHRGHHTFLMEEVAQEYHVKLQTALEMLRQKQQEAEKLEADIREEKASWKIQIDYDKTNVSADFEQLREILDWEESNELQNLEKEEEDILKSLTKSETEMVQQTQYMRELISELEHRLQGSMMDLLQGVDGIIKRIENMTLKKPKTFHKNQRRVFRAPDLKGMLDMFRELTDARRYWVDVTLAPNNISHAVIAEDKRQVSSRNPQIMYGAPGTRYTFPTLVNFNYCTGVLGSQSITSGKHYWEVDVSKKSAWILGVCAGFQSDAMYNIEQNENYQPKYGYWVIGLQEGVKYSVFQDGSSHTPFAPFIVPLSVIICPDRVGVFVDYEACTVSFFNITNHGFLIYKFSQCSFSKPVFPYLNPRKCTVPMTLCSPSS [rhesus TRIM5α, 332-344 = GAPGTRYTFPTLV]”, the enrichment worked out at 2.15 ± 0.3.

(Values after the supplement of paper PMC12230231.)
